Test results from the supplement of paper PMC8047034.
Where a name gives a salt, the structure may show the parent alone. Some of the results follow. Single values are uncertain, as repeats are few or missing.

The compounds below were run on Ov4Carbo (assay: log2 surviving fraction (library drug vs vehicle, or drug + carboplatin vs carboplatin alone; relative to plate median); ovarian cancer lines: OVCAR4 is platinum-sensitive and Ov4Carbo platinum-resistant; higher = more cell survival). Conditions: library drug concentration 10 µM; 7 days; carboplatin co-treatment 0 µM.

SMILES	log2 surviving fraction
CCCCC(=O)O[C@]1(C(=O)CO)[C@@H](C)C[C@H]2[C@@H]3CCC4=CC(=O)C=C[C@]4(C)[C@@]3(F)[C@@H](O)C[C@@]21C [Betamethasone valerate (Betnovate)]	1.34
CN(C)CCCSC(=N)N [Dimaprit 2HCl]	0.0845
CC(NCCc1ccc(O)cc1)C(O)c1ccc(O)cc1 (stereo unspecified) [Ritodrine hydrochloride (Yutopar)]	-0.285
c1ccc2c(CC3=NCCN3)cccc2c1 [Naphazoline hydrochloride (Naphcon)]	0.161
COCCCC/C(=N\OCCN)c1ccc(C(F)(F)F)cc1 [Fluvoxamine maleate]	-1.95
CN(C)C(=O)C(CCN1CCC(O)(c2ccc(Cl)cc2)CC1)(c1ccccc1)c1ccccc1 [Loperamide hydrochloride]	-5.19
CN(C)CCc1c[nH]c2ccc(Cn3cncn3)cc12 [Rizatriptan Benzoate (Maxalt)]	0.42
CC(=O)Oc1ccccc1C(=O)Nc1ncc([N+](=O)[O-])s1 [Nitazoxanide (Alinia, Annita)]	0.585
CC(C)c1c(C(=O)Nc2ccccc2)c(-c2ccccc2)c(-c2ccc(F)cc2)n1CC[C@@H](O)C[C@@H](O)CC(=O)O [Atorvastatin calcium (Lipitor)]	-1.45
O=C(CCCN1CC=C(n2c(=O)[nH]c3ccccc32)CC1)c1ccc(F)cc1 [Droperidol]	-0.0853
CCn1cc(C(=O)O)c(=O)c2cc(F)c(N3CCNC(C)C3)c(F)c21 (stereo unspecified) [Lomefloxacin hydrochloride (Maxaquin)]	0.714
